Laboratory results as given in PubChem BioAssay AID686979 (National Center for Advancing Translational Sciences (NCATS), 2013).
The whole screen tested about 420,000 compounds, of which about 50,000 (12%) were called active. Inconclusive results, whose numbers are uncertain, are shown with a selection of clear calls. The call rests on the fitted dose curve; in most records, active means well fitted inhibition curve with a large enough effect; inconclusive means small, poorly fitted or top-dose-only effect; inactive means flat fitted curve, though single readings scatter. Potencies of inconclusive entries are left out as doubtful fits.

assay: qHTS for Inhibitors of human tyrosyl-DNA phosphodiesterase 1 (TDP1): qHTS in cells in presence of CPT; settings: chicken DT40 Tdp1-/-;hTDP1 cells + 20 nM CPT, ATP luminescence, 48 h; activity change, negative = growth inhibition: at 46.2 µM (top of the series) unless noted; further: nearly all actives have a fitted effect of over 55% in size
How it was run: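 Chicken DT40 Tdp1-/- cells complemented with human TDP1, 400 cells/well, exposed to compounds plus 20 nM camptothecin for at least 48 h at 37 C; viability read as ATP content by CellTiter-Glo luminescence.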
On the % scale 0 is the no-effect control and ±100 the full control effect; potency means the concentration at half of the fitted maximal effect; tags describe the fitted curve by direction and shape.

Question: Which Potency does the source give for `CCN(CC)C(=O)n1cnc(-c2ccccc2)c1-c1ccccc1` here?
Answer: The Potency was inconclusive [inhibitor, single point].

Question: For `CN1CCN(C(=S)NC(=O)/C=C/c2ccccc2)CC1`, which Potency is on record?
Answer: Its Potency is inconclusive [inhibitor, single point].

Question: For `Cc1ccc(-c2cc(C(F)(F)F)n3nc(C(=O)Nc4ccc(Cl)cc4Cl)cc3n2)cc1`, which Potency is on record?
Answer: The Potency was “inactive”.

Question: Which Potency does the source give for `CCN(CC)C(=O)C1CCN(S(=O)(=O)c2ccc3c(c2)CCCN3C(C)=O)CC1` here?
Answer: Its Potency is active: 23.1 µM.

Question: With `CCOC(=O)c1ccc(NC(=O)c2c(NCc3ccccc3)[nH]c(=O)[nH]c2=O)cc1` as the compound, how does the Potency read?
Answer: The Potency was “inactive”.

Question: For `CCc1nc2c(OCc3cccc(Cl)c3)cccn2c1N(C)C(=O)CC(C)C`, which Potency is on record?
Answer: Its Potency is inconclusive [inhibitor, single point].

Question: With `COCCNC(=O)c1cnn(-c2ccc(C)cc2C)c1C1CCN(C(=O)OC(C)(C)C)CC1` as the compound, how does the Potency read?
Answer: The Potency was inconclusive [inhibitor, single point].

Question: Which Potency does the source give for `COc1ccc(-n2c(/C=C/c3ccccc3F)nc3cc(OC)c(OC)cc3c2=O)cc1Cl` here?
Answer: Its Potency is active: 14.6 µM.

Question: Which Potency does the source give for `COc1cc(NC(=O)Cc2ccc(S(=O)(=O)N3CCOCC3)s2)c(OC)cc1Cl` here?
Answer: The Potency was inconclusive [inhibitor, partial curve, poor fit].

Question: With `CCOC(=O)c1ccc(NC(=O)c2cccc(S(=O)(=O)N3c4ccccc4CC3C)c2)s1` (stereo unspecified) as the compound, how does the Potency read?
Answer: The Potency was active: 16.4 µM.

Question: With `Cc1cc2ncn(CCOc3ccccc3)c2cc1C` as the compound, how does the Potency read?
Answer: The Potency was inconclusive [inhibitor, partial curve].

Question: Which Potency does the source give for `N#Cc1ccc(NC(=O)COc2ccccc2C(=O)Nc2ccccc2)cc1` here?
Answer: The Potency was active: 11.2 µM.

Question: With `Cc1ccsc1C(=O)OCC(=O)c1ccc(OC(F)F)cc1` as the compound, how does the Potency read?
Answer: The Potency was “inactive”.

Question: For `O=C(CCCCCNC(=O)c1ccccc1)C[N+](=O)[O-]`, which Potency is on record?
Answer: Its Potency is “inactive”.

Question: For `CC1CN(C(=O)Nc2ccc(C(=O)NCCc3ccccc3)cc2)c2ccccc2S1` (stereo unspecified), which Potency is on record?
Answer: Its Potency is inconclusive [inhibitor, single point].

Question: Which Potency does the source give for `COC(=O)CSc1n[nH]c(-c2cccnc2)n1` here?
Answer: Its Potency is “inactive”.

Question: For `Cc1ccc(C)c(OCC(=O)Nc2ccncc2)c1`, which Potency is on record?
Answer: Its Potency is inconclusive [inhibitor, partial curve].

Question: Which Potency does the source give for `CSc1nccc(-c2cc(Cl)sc2Cl)n1` here?
Answer: The Potency was inconclusive [inhibitor, partial curve].

Question: For `Cc1cc2c3c(c1)C(C)CC(C)(C)N3C(=O)C2=O` (stereo unspecified), which Potency is on record?
Answer: The Potency was active: 23.1 µM.

Question: Which Potency does the source give for `C=C(C)C(=O)Nc1cccc(C2=NOC3(C2)C[C@@H](C(N)=O)N(C(=O)c2ccc(OC)cc2)C3)c1` (stereo partly specified) here?
Answer: Its Potency is “inactive”.

Question: For `O=C(Nc1c(C(=O)N2CCOCC2)oc2ccccc12)c1cccc([N+](=O)[O-])c1`, which activity change, negative = growth inhibition is on record?
Answer: The activity change, negative = growth inhibition was inconclusive: -37.1% [inhibitor].
